Assay results taken from the antibiotic and cytotoxicity screens of Wong et al. (2023).
This is one part of the list.

What was measured:
[1] = tested on: HSkMC (human skeletal muscle cells); test: cytotoxicity call (relative viability < 0.9); settings: 10 µM
[2] = tested on: HepG2; test: cytotoxicity call (relative viability < 0.9); settings: 10 µM
[3] = tested on: S. aureus RN4220; test: growth inhibition call (relative growth <= 0.2); settings: 50 µM

SMILES | cytotoxicity call [1] | cytotoxicity call [2] | growth inhibition call [3]
Cc1ccc(S(=O)(=O)N2C[C@H](O)COC[C@@H]3O[C@H](CC(=O)N4CCc5ccccc5C4)CC[C@H]32)cc1 | inactive | inactive | inactive
Cc1noc(C)c1S(=O)(=O)N(C)C[C@H]1OCc2cnnn2CCCC(=O)N([C@H](C)CO)C[C@@H]1C | inactive | inactive | inactive
C[C@H]1CN([C@@H](C)CO)C(=O)Cc2cc(NC(=O)Cn3cnnn3)ccc2O[C@@H]1CN(C)S(=O)(=O)c1ccccc1 | inactive | inactive | inactive
C[C@H](O)C#Cc1ccc2c(c1)O[C@H](CN(C)C(=O)Nc1ccccc1)[C@H](C)CN([C@@H](C)CO)S2(=O)=O | inactive | inactive | inactive
C[C@@H]1CN([C@@H](C)CO)C(=O)Cc2cc(NS(=O)(=O)c3cn(C)cn3)ccc2O[C@@H]1CN(C)S(=O)(=O)c1cn(C)cn1 | inactive | inactive | inactive
Cc1noc(C)c1NC(=O)Nc1ccc2c(c1)C(=O)N([C@H](C)CO)C[C@H](C)[C@@H](CN(C)C(=O)Nc1ccc3c(c1)OCO3)OCCCC[C@@H](C)O2 | inactive | inactive | inactive
C[C@@H]1CN([C@@H](C)CO)C(=O)c2cccc(NC(=O)C3CC3)c2O[C@H]1CN(C)S(=O)(=O)c1ccc(Cl)cc1 | inactive | inactive | inactive
O=S(=O)(c1cccc2cnccc12)N1CCCNCC1 | inactive | active | inactive
C[C@H]1CN([C@@H](C)CO)C(=O)Cc2cc(NC(=O)Cn3cnnn3)ccc2O[C@H]1CN(C)Cc1ccc2c(c1)OCO2 | inactive | inactive | inactive
C[C@@H]1CN([C@H](C)CO)C(=O)c2cc(NC(=O)CCCCCC(=O)Nc3ccccc3N)ccc2O[C@H]1CN(C)S(=O)(=O)c1cn(C)cn1 | inactive | inactive | inactive
C[C@H]1CN([C@@H](C)CO)C(=O)c2c(c3ccccc3n2C)-c2ccccc2CO[C@H]1CN(C)C(=O)Nc1ccccc1C(F)(F)F | inactive | inactive | inactive
Cc1noc(C)c1NC(=O)Nc1ccc2c(c1)C(=O)N([C@H](C)CO)C[C@H](C)[C@@H](CN(C)CC1CC1)OCCCC[C@@H](C)O2 | inactive | inactive | inactive
O=C(C[C@@H]1C=C[C@H](NC(=O)C2CCOCC2)[C@@H](CO)O1)NCCc1cscn1 | inactive | inactive | inactive
C[C@@H]1CN([C@H](C)CO)C(=O)c2cc(C#Cc3ccccc3F)cnc2O[C@H]1CN(C)S(=O)(=O)c1ccccc1 | inactive | inactive | inactive
C[C@@H]1CN([C@@H](C)CO)C(=O)CCCn2cc(nn2)CO[C@@H]1CN(C)S(=O)(=O)c1ccc(-c2ccccc2)cc1 | inactive | inactive | inactive
C[C@@H]1CN([C@@H](C)CO)C(=O)CCCn2nncc2CO[C@H]1CN(C)S(=O)(=O)c1ccc(C#N)cc1 | inactive | inactive | inactive
Cc1ccc(S(=O)(=O)N(C)C[C@H]2OCCCC[C@@H](C)Oc3ccc(NC(=O)Nc4c(C)noc4C)cc3C(=O)N([C@H](C)CO)C[C@H]2C)cc1 | inactive | inactive | inactive
CC1=C(C(=O)O)N2C(=O)[C@@H](NC(=O)[C@H](N)c3ccccc3)[C@H]2SC1 | inactive | inactive | inactive
O=C(O)c1cccc(-c2ccco2)c1 | inactive | inactive | inactive
O=c1cc(-c2ccccc2)oc2cc(O)cc(O)c12 | inactive | inactive | inactive
C[C@H](CO)N1C[C@H](C)[C@H](CN(C)Cc2ccc(-c3ccccc3)cc2)Oc2ccc(NS(=O)(=O)c3ccc(F)cc3)cc2C1=O | inactive | inactive | inactive
C[C@@H]1CN([C@@H](C)CO)C(=O)c2cc(NC(=O)NC3CCCCC3)ccc2O[C@H]1CN(C)S(=O)(=O)c1cn(C)cn1 | inactive | inactive | inactive
Cn1cnc(S(=O)(=O)N[C@@H]2CC[C@H](CC(=O)NCC3CC3)O[C@@H]2CO)c1 | inactive | inactive | inactive
COCCNC(=O)C[C@@H]1CC[C@H]2[C@@H](COC[C@H](O)CN2C(=O)Nc2ccccc2OC)O1 | inactive | inactive | inactive
O=C(C[C@H]1C[C@H]2c3cc(NS(=O)(=O)c4ccccc4)ccc3O[C@H]2[C@@H](CO)O1)NCC(F)(F)F | inactive | inactive | inactive
Cc1ccc(S(=O)(=O)Nc2ccc3c(c2)C(=O)N([C@@H](C)CO)C[C@@H](C)[C@@H](CN(C)C(=O)Nc2cccc4ccccc24)OCCCC[C@@H](C)O3)cc1 | inactive | inactive | inactive
